Several values for one entry are separate records, joined by “and”; a condition that tells them apart may be missing. Equal entries are not always repeated. Out of some 400,000 compounds screened, about 2,200 (0.55%) were called active. The shares of active, inactive and inconclusive entries below differ from those in the screen. Calls come from the whole dose curve; as a rule, active = well fitted inhibition curve with a large enough effect; inconclusive = small, poorly fitted or top-dose-only effect, or another doubt; inactive = no such curve, though single readings can be large or run the other way. A potency beside an inconclusive call is a rough fit, not a confirmed value. Positions of bridges follow the written chain, without caps; N, C: chain ends. Non-standard residues stand in square brackets, D forms with d. Residues, ends and D or L forms follow the SMILES beside them. *: point of attachment. X1 = CCC(C)C(N)C1=NC(C(=O)*)CS1; dOrn = NCCC[C@@H](N)C(=O)O
target: DNA polymerase kappa (Homo sapiens) (UniProt Q9UBT6); experiment: qHTS for Inhibitors of Polymerase Kappa; conditions: purified Pol kappa, fluorescent DNA synthesis assay, 10 min; series mostly up to 107 µM; activity, negative = inhibition: at the top concentration
Sequence of UniProt Q9UBT6 (Q9UBT6 whole entry, looked up): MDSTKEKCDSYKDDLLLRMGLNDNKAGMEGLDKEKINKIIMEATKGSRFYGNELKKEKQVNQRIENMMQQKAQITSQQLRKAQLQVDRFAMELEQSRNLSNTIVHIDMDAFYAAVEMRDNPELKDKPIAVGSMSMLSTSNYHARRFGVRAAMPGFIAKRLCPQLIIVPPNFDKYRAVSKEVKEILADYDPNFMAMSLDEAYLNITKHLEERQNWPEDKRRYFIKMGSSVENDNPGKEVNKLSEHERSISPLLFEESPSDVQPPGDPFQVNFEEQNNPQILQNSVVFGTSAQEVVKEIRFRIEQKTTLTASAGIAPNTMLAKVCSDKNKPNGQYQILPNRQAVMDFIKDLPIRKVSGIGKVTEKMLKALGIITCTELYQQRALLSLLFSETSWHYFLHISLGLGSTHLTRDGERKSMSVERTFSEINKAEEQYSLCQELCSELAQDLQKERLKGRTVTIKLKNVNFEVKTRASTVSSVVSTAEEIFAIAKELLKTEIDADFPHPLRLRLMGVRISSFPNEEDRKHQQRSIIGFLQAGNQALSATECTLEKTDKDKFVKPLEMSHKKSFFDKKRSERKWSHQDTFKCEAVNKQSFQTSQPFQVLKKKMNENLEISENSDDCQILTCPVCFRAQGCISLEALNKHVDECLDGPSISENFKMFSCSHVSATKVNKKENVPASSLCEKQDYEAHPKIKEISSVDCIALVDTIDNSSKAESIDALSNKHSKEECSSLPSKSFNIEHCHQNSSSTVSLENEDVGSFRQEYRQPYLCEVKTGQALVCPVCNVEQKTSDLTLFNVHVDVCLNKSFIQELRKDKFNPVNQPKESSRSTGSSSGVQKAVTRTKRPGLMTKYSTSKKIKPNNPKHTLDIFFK
In short: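 Activity was followed as the change in fluorescence between reads at 0 and 10 min after starting the reaction with 50 nM substrate. Beforehand, 10 nM polymerase had been preincubated with compound for 15 min at room temperature.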
% is set by controls: 0 for no effect and ±100 for the full control effect; potency is the fitted concentration of half-maximal effect; tags give direction and shape of the fitted curve.

SMILES	Potency	activity, negative = inhibition
O=S1(=O)[C@H]2C[C@@H]3C=C[C@@]2(CN1Cc1ccc(F)cc1)O3	inconclusive: 100 µM [inhibitor, single point]	
O=C1C(=C2CCCCC2)SC(=S)N1Cc1ccco1	inconclusive: 79.4 µM [inhibitor, single point]	
Cn1nnnc1SCC1=C(C(=O)O)N2C(=O)C(NC(=O)C3CC3c3ccccc3)C2SC1 (centres undefined)	inconclusive: 89.1 µM [inhibitor, single point]	
Cc1ccc(-c2sc(-c3cccnc3)nc2CC(=O)O)cc1		inactive: -2.2%
CCc1ccc(C(=O)CC2(O)C(=O)N(Cc3ccc(C)cc3)c3ccccc32)cc1 (centres undefined)	inconclusive: 89.1 µM [inhibitor, single point]	
CN(C)c1ccc(/C=C2\C(=N)N3N=C(CC(=O)N4CCCCC4)SC3=NC2=O)cc1	inconclusive: 89.1 µM [inhibitor, single point]	
CCCN1C(=O)c2ccccc2NC1c1ccc(OC)c(COc2cccc(OC)c2)c1 (centres undefined)		inactive: -7.14%
CCCCN(CCCC)S(=O)(=O)c1ccc(NC(=O)Cc2cccs2)cc1	inconclusive: 79.4 µM [inhibitor, single point]	
Cc1cccc(N2CC(C(=O)Nc3nnc(SCC(=O)NCC4CCCO4)s3)CC2=O)c1 (centres undefined)	inconclusive: 89.1 µM [inhibitor, single point]	
COc1ccc(S(=O)(=O)NCCSC(C)(C)C)c(Cl)c1Cl	inconclusive: 79.4 µM [inhibitor, partial curve, poor fit]	
CCOc1ccccc1NC(=O)CCS(=O)(=O)c1ccc(Br)cc1	inconclusive: 70.8 µM [inhibitor, single point]	
COc1ccc(/C=N/NC(=O)c2ccc(=O)[nH]n2)cc1OC	inconclusive: 56.2 µM [inhibitor, partial curve, poor fit]	
Nc1ccc2nc(-c3ccc(N)c(Cl)c3)[nH]c2c1	inconclusive: 56.2 µM [inhibitor, partial curve, poor fit]	
C[C@H](NC(=O)/C(C#N)=C/c1ccc(O)c(O)c1)c1ccccc1	inactive and inconclusive: 12.6 µM [inhibitor, partial curve, poor fit]	
O=C(Cn1ncc2ccccc21)N1CCc2ccccc21	inconclusive: 79.4 µM [inhibitor, partial curve]	
Cn1cc(-c2nc3cnc(OCc4ccccc4)nc3n(CCC#N)c2=O)c2ccccc21		inactive: 1.12% [at 60.1 µM]
Cn1c(CN2CCOCC2)nc2cc(NC(=O)c3ccccc3[N+](=O)[O-])ccc21	inconclusive: 100 µM [inhibitor, single point]	
Oc1ccc(Br)cc1/C=N/N1CCN(Cc2cccc3ccccc23)CC1	inconclusive: 100 µM [inhibitor, single point]	
COc1cc(OC)c2ccc(=O)oc2c1C(CC(=O)N1CCCC(C)C1)c1ccc2c(c1)OCO2 (centres undefined)	inconclusive: 79.4 µM [inhibitor, single point]	
COc1cc(C2N(c3ccccn3)C(=O)C3CCCN32)cc(OC)c1OC (centres undefined)	inconclusive: 89.1 µM [inhibitor, partial curve, poor fit]	
N#C/C(=C\c1ccc(-c2ccc(C(=O)O)cc2)o1)C(=O)Nc1ccc(F)cc1	active: 56.2 µM	
COc1cc(/C=C2\CCCc3c2nc2ccccc2c3C(=O)O)cc([N+](=O)[O-])c1O	active: 79.4 µM	

SMILES	Potency	activity, negative = inhibition
NC(=O)CC(NC(=O)c1ccccc1)c1ccc(NC2CCCCC2)c([N+](=O)[O-])c1 (centres undefined)	inconclusive: 89.1 µM [inhibitor, partial curve, poor fit]	
Cc1nn(C(C)C(=O)NC2C(=O)N3C(C(=O)O)=C(CSc4nnnn4C)CSC23)cc1Cl (centres undefined)	inconclusive: 89.1 µM [inhibitor, partial curve, poor fit]	
Oc1cccc(O)c1O	active: 2.99 µM	
Cc1ccc(NC(=O)/C(C#N)=C(\N)C(Cl)(Cl)Cl)nc1		inactive: -2.34%
O=C1CCCC(O)=C1N=Nc1ccc(C(=O)O)cc1	active: 20 µM	
Cc1ccccc1NC(=O)CSc1nc(-c2cccs2)nc2cc(=O)[nH]n12	inconclusive: 100 µM [inhibitor, single point]	
O=c1[nH][nH]c2c(N=Cc3ccccc3O)ccc(F)c12	active: 3.98 µM	
Cc1cc(=O)oc2cc(OCC(=O)NC3CC(C)(C)NC(C)(C)C3)ccc12	inconclusive: 100 µM [inhibitor, single point]	
O=C(Nc1ccc(-c2ccccc2)cc1)c1ccccc1		inactive: 2.56%
CC(=O)c1ccc(NC(=O)CSc2nccn2C2CCCC2)cc1		inactive: -4.83% [at 60.1 µM]
O=C(O)c1ccc(N2C(=O)/C(=C/c3ccc(-c4ccc([N+](=O)[O-])cc4)o3)C=C2c2ccccc2)cc1	inconclusive: 89.1 µM [inhibitor, single point]	
COc1cccc(Cn2c(=O)c(-c3cn(C)c4ccccc34)nc3cnc(N4CCNCC4)nc32)c1	inconclusive: 25.1 µM [inhibitor, single point]	
COc1ccc(CCNC(=O)c2cc3c(=O)n4ccccc4nc3n(Cc3ccco3)c2=N)cc1OC		inactive: -0.112%
COc1ccc(C2CC(=O)Oc3c(C(CCN4CCOCC4)c4ccc5c(c4)OCO5)c(OC)cc(OC)c32)cc1 (centres undefined)		inactive: -10.1%
Cc1ccc(/C=C2\SC(=S)N(/N=C/c3cc([N+](=O)[O-])ccc3O)C2=O)o1	active: 20 µM	
O=C(Nc1cccc(Cl)c1)Nc1nnc(-c2ccncc2)s1		inactive: -9.62%
CCN(c1ccc(NC(=O)COC(=O)/C=C/c2ccco2)cc1)C(C)C		inactive: -4.98%
COc1ccccc1CNc1ccnc(-c2ccc(N(C)C)cc2)n1	inconclusive: 25.1 µM [inhibitor, partial curve, poor fit]	
Cc1ccc(C(=O)CSc2nc(-c3ccccc3)nc3c2CCCC3)cc1C		inactive: -9.03%
O=c1nc2ccccc2c(NS(=O)(=O)c2ccc(Cl)cc2)n1-c1ccccc1		inactive: -20.2%
Cc1ccc(NC(=O)CCC(=O)N2CCC(C)CC2)c([N+](=O)[O-])c1	inconclusive: 89.1 µM [inhibitor, partial curve, poor fit]	
O=C(CCN1CCCCC1)Nc1ccc2c(c1)C(=O)c1ccc(NC(=O)CCN3CCCCC3)cc1C2=O	inconclusive: 39.8 µM [inhibitor, single point]	

SMILES	Potency	activity, negative = inhibition
N#CC1=C(N)n2c(s/c(=C\c3ccco3)c2=O)=C(C#N)C1c1ccco1 (centres undefined)	active: 22.4 µM	
Cc1oc(-c2cccc(Cl)c2)nc1CN1CCC(C(=O)NCc2ccc(F)cc2)CC1		inactive: -3.42%
COc1ccc(S(=O)(=O)Nc2c(C)n(C)n(-c3ccccc3)c2=O)cc1Br	inconclusive: 89.1 µM [inhibitor, partial curve, poor fit]	
O=C(Nc1nc2ccccc2[nH]1)C1CC(=O)N(c2ccc3c(c2)OCCO3)C1 (centres undefined)	inconclusive: 89.1 µM [inhibitor, partial curve, poor fit]	
O=C(O)c1ccccc1Nc1cccc(OCc2ccc3ccccc3n2)c1	inconclusive: 3.55 µM [inhibitor, partial curve, poor fit]	
O=C1COc2ccc(C(=O)COC(=O)/C=C/c3ccc(Br)o3)cc2N1	active: 17.8 µM	
COc1ccc(OC)c(S(=O)(=O)NC(N)=NCCc2ccccc2)c1	inconclusive: 89.1 µM [inhibitor, partial curve, poor fit]	
Cc1ccc(C(c2ccc(C)o2)c2cccc([N+](=O)[O-])c2O)o1	inconclusive: 89.1 µM [inhibitor, single point]	
CC(C)c1ccc(NC(=O)C2CCCN(S(=O)(=O)c3ccc4[nH]c(=O)oc4c3)C2)cc1 (centres undefined)	inconclusive: 89.1 µM [inhibitor, single point]	
O=C(NCc1ccco1)C1CCCN(c2nnc(-n3cccc3)s2)C1 (centres undefined)	inconclusive: 89.1 µM [inhibitor, single point]	
Cc1ccccc1OCC(=O)N/N=C/c1ccc([N+](=O)[O-])o1	inconclusive: 79.4 µM [inhibitor, partial curve]	
Cc1cccc(NC(=O)/C(=C\c2ccc([N+](=O)[O-])o2)NC(=O)c2ccc(Cl)cc2)c1	inconclusive: 79.4 µM [inhibitor, partial curve]	
O=C(CSc1nnnn1-c1ccccc1)NC(=O)NCc1ccco1	inconclusive: 89.1 µM [inhibitor, single point]	
COc1cc2nc(N3CCOCC3)nc(NC3CCN(Cc4ccccc4)CC3)c2cc1OC		inactive: 1.87%
CCC(C)C(N)C1=NC(C(=O)N[C@@H](CC(C)C)C(=O)N[C@H](CCC(=O)O)C(=O)N[C@H](C(=O)N[C@H]2CCCCNC(=O)[C@H](CC(N)=O)NC(=O)[C@@H](CC(=O)O)NC(=O)[C@H](Cc3cnc[nH]3)NC(=O)[C@@H](Cc3ccccc3)NC(=O)[C@H]([C@@H](C)CC)NC(=O)[C@@H](CCCN)NC2=O)[C@@H](C)CC)CS1 (some centres undefined) (X1-L[dE]IK[dOrn]I[dF]H[dD]N; lactam 4-C)	inconclusive: 79.4 µM [inhibitor, partial curve, poor fit]	
O=C(C[n+]1ccccc1)N/N=C/c1ccc(Br)cc1		inactive: -23.4%
C=CCn1c(SCC(=O)NC2CCCC2)nc2scc(-c3ccco3)c2c1=O	inconclusive: 89.1 µM [inhibitor, single point]	
O=S(=O)(Cc1cc(NCc2ccccc2)nc(-c2ccncc2)n1)c1ccccc1		inactive: -2.48%
COc1ccc(CNc2n[nH]c(-c3ccco3)n2)cc1OC		inactive: -1.17%
CCn1c(=O)n(C2=C(CO)CN(CC3CCCCCCC3)CC2)c2ccccc21		inactive: 3.79% [at 60.1 µM]
